According to the supplement of paper PMC10126150:
Values marked as one replicate rest on one cluster of the flow cell; about a third of the high ones do not repeat.
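Also: ATP exposure 15 min at 22 °C before imaging.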

What follows are sequences tested on ATP (assay: switch fluorescence ratio, 500 uM ATP over buffer (Cy3 cluster intensity, sum of 5 cycles each) (fold (ratio)); higher = stronger signal-on switching upon ATP binding; sequences stand for … in TCGTCGGCAGCGTCAGATGTGTATAAGAGACAGTTTTTTTTTTTTTTTTTTTTTTTTT…TC). Conditions: aptamer strand: ATP DNA aptamer (quencher-CACCTGGGGGAGTATTGCGGAGGAAGG + anchor), 100 nM annealed; ATP concentration: 500 uM; one replicate.
In short: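 Clusters carrying Cy3-labelled switching strands on a modified Illumina MiSeq flow-cell were annealed to 100 nM quencher-labelled ATP aptamer and imaged in selection buffer. They were imaged again after 15 min with 500 uM ATP at 22 °C, over five buffer/ATP cycles with NaOH stripping and re-annealing in between. For each cluster, the fluorescence ratio is the summed Cy3 intensity of the target cycles divided by that of the buffer cycles, averaged per switch-domain sequence. Clusters outside 100-1000 RFU were left out.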
TGACTTAAGT showed a switch fluorescence ratio of 0.997. TGACTTCCGT gave a switch fluorescence ratio of 1.13. For TGACTTGGGC, the switch fluorescence ratio was 0.954. For TGACTTGGTT, the switch fluorescence ratio was 1.07. Sequence TGACTTGTGA has a switch fluorescence ratio of 0.976. TGAGACAACT was tested, and the switch fluorescence ratio was 1.04. TGAGACTGCT gave a switch fluorescence ratio of 1.01. TGAGAGAAGC gave a switch fluorescence ratio of 0.975. Work on TGAGAGAATA yielded a switch fluorescence ratio of 0.976. TGAGAGC gave a switch fluorescence ratio of 1.03. TGAGAGCTCG was tested, and the switch fluorescence ratio was 0.999. For TGAGAGGCCT, the switch fluorescence ratio was 1.02. With TGAGAGGTCA the switch fluorescence ratio was 1. TGAGATGATT was tested, and the switch fluorescence ratio was 1.03. In the case of TGAGATTTAA, the switch fluorescence ratio is reported as 1.02. Work on TGAGCAGAGA yielded a switch fluorescence ratio of 1.02. For TGAGCATTTT, the switch fluorescence ratio was 1.02. In the case of TGAGCGTCCG, the switch fluorescence ratio is reported as 1.03. With TGAGCTCATA the switch fluorescence ratio was 1.06. For TGAGGACATA, the switch fluorescence ratio was 0.988. TGAGGAGACG gave a switch fluorescence ratio of 1.03. TGAGGAGGAC gave a switch fluorescence ratio of 0.983. Sequence TGAGGATCAA has a switch fluorescence ratio of 1.01. Work on TGAGGCGATG yielded a switch fluorescence ratio of 1.04. For TGAGGCTCCT, the switch fluorescence ratio was 1.04. TGAGGCTGAC gave a switch fluorescence ratio of 0.965. TGAGGCTGCA gave a switch fluorescence ratio of 1.02. For TGAGGGAGAA, the switch fluorescence ratio was 1.02. In the case of TGAGGGTGG, the switch fluorescence ratio is reported as 1. TGAGGTGTTC was tested, and the switch fluorescence ratio was 0.968. Work on TGAGTAACAT yielded a switch fluorescence ratio of 0.931. With TGAGTCAATA the switch fluorescence ratio was 1.1. In the case of TGAGTCGTAA, the switch fluorescence ratio is reported as 1.03. Work on TGAGTGATAC yielded a switch fluorescence ratio of 1.44. With TGAGTTCATA the switch fluorescence ratio was 0.98. In the case of TGAGTTCT, the switch fluorescence ratio is reported as 0.976. TGATAAGTC showed a switch fluorescence ratio of 1.03. In the case of TGATACGGGA, the switch fluorescence ratio is reported as 1.05. With TGATAGTTG the switch fluorescence ratio was 1. In the case of TGATATAACT, the switch fluorescence ratio is reported as 0.957. Work on TGATCAAAAG yielded a switch fluorescence ratio of 1. In the case of TGATCACGGG, the switch fluorescence ratio is reported as 1.02. TGATCAGGC gave a switch fluorescence ratio of 0.969. With TGATCCCAGT the switch fluorescence ratio was 1.06. TGATCGCCAG showed a switch fluorescence ratio of 0.999. TGATCGGCCT was tested, and the switch fluorescence ratio was 0.995. TGATCGGGAA gave a switch fluorescence ratio of 1.05. Sequence TGATCTGCAC has a switch fluorescence ratio of 1.29. With TGATCTGTGG the switch fluorescence ratio was 1.01. TGATCTTAGT gave a switch fluorescence ratio of 1.03. In the case of TGATGAAGTA, the switch fluorescence ratio is reported as 1.04. With TGATGCAACA the switch fluorescence ratio was 1.01. For TGATGCGCGG, the switch fluorescence ratio was 1. TGATGCGGGA showed a switch fluorescence ratio of 1.01. TGATGCTGTG was tested, and the switch fluorescence ratio was 0.987. TGATGTCCCC gave a switch fluorescence ratio of 0.985. For TGATGTGACG, the switch fluorescence ratio was 1.05. TGATTACCGG gave a switch fluorescence ratio of 1.02. In the case of TGATTAGGAG, the switch fluorescence ratio is reported as 1.01. With TGATTAGTGG the switch fluorescence ratio was 0.954. For TGATTAGTTT, the switch fluorescence ratio was 1.01. TGATTATCCT showed a switch fluorescence ratio of 1.05. In the case of TGATTCGTG, the switch fluorescence ratio is reported as 0.954. TGATTGAAGG showed a switch fluorescence ratio of 1.05. With TGATTGCACT the switch fluorescence ratio was 1.02. In the case of TGATTGTACG, the switch fluorescence ratio is reported as 1.03. TGATTTCAGT showed a switch fluorescence ratio of 0.98. In the case of TGATTTTACT, the switch fluorescence ratio is reported as 1.02. TGCAACATAT gave a switch fluorescence ratio of 2.04. TGCAAGGCAC showed a switch fluorescence ratio of 1.06. With TGCAATCCAA the switch fluorescence ratio was 1.09. In the case of TGCACAAGCG, the switch fluorescence ratio is reported as 0.982. Work on TGCACAGAGC yielded a switch fluorescence ratio of 0.962. TGCACGAGCA was tested, and the switch fluorescence ratio was 1.04. For TGCACGAGGG, the switch fluorescence ratio was 0.996. For TGCACGTTCT, the switch fluorescence ratio was 1.04. In the case of TGCACTTTAT, the switch fluorescence ratio is reported as 1.02. TGCAGAAACG was tested, and the switch fluorescence ratio was 1.1. TGCAGAACAG gave a switch fluorescence ratio of 1.03. In the case of TGCAGATGTC, the switch fluorescence ratio is reported as 0.948. TGCAGCCCGG was tested, and the switch fluorescence ratio was 1.05. Sequence TGCAGCGCAT has a switch fluorescence ratio of 1.32. TGCAGCGGCC showed a switch fluorescence ratio of 1.01. For TGCAGCTCCC, the switch fluorescence ratio was 2.76. In the case of TGCAGGGTG, the switch fluorescence ratio is reported as 1.14. With TGCAGGTGCT the switch fluorescence ratio was 1.3. For TGCAGTCAGA, the switch fluorescence ratio was 1.01. TGCAGTGACG gave a switch fluorescence ratio of 0.989. TGCAGTTCGG was tested, and the switch fluorescence ratio was 0.994. In the case of TGCATAAGT, the switch fluorescence ratio is reported as 1.11. In the case of TGCATATAAC, the switch fluorescence ratio is reported as 1.17. Sequence TGCATGGCAT has a switch fluorescence ratio of 0.976. With TGCATGGTGC the switch fluorescence ratio was 1.09. For TGCATTACGC, the switch fluorescence ratio was 1.26. TGCATTCGAA showed a switch fluorescence ratio of 1.02. TGCCAACATG gave a switch fluorescence ratio of 0.968. TGCCAACGGG was tested, and the switch fluorescence ratio was 0.965. TGCCAATCGC gave a switch fluorescence ratio of 1.11. In the case of TGCCACCTGC, the switch fluorescence ratio is reported as 0.977. TGCCACGCAT was tested, and the switch fluorescence ratio was 1.05. TGCCACTAAG was tested, and the switch fluorescence ratio was 1. Work on TGCCAGGGCA yielded a switch fluorescence ratio of 1.03. TGCCATAAGC was tested, and the switch fluorescence ratio was 0.959. With TGCCATAGGG the switch fluorescence ratio was 1.01. In the case of TGCCATATAG, the switch fluorescence ratio is reported as 1.01. With TGCCATTGTC the switch fluorescence ratio was 1.02. In the case of TGCCCAGTAG, the switch fluorescence ratio is reported as 1.17. In the case of TGCCCGCACG, the switch fluorescence ratio is reported as 1.53. In the case of TGCCCGGGCT, the switch fluorescence ratio is reported as 0.983. For TGCCGACGTG, the switch fluorescence ratio was 0.973. Sequence TGCCGATCAT has a switch fluorescence ratio of 1.01. Work on TGCCGATTGA yielded a switch fluorescence ratio of 1.01. In the case of TGCCGGACAG, the switch fluorescence ratio is reported as 1.04. Work on TGCCGGCGGA yielded a switch fluorescence ratio of 0.951. For TGCCGGGGTG, the switch fluorescence ratio was 1.02. Sequence TGCCGGGTCA has a switch fluorescence ratio of 0.969. Work on TGCCGGTGAG yielded a switch fluorescence ratio of 0.963. TGCCGGTGTC showed a switch fluorescence ratio of 1.02. Sequence TGCCGTGGTG has a switch fluorescence ratio of 1.08. With TGCCTAAACG the switch fluorescence ratio was 1.03. With TGCCTAGTTG the switch fluorescence ratio was 1.03. TGCCTATCTA was tested, and the switch fluorescence ratio was 1.02. Work on TGCCTATTCT yielded a switch fluorescence ratio of 1.04. Sequence TGCCTCAAAC has a switch fluorescence ratio of 1.07. In the case of TGCCTCAGGT, the switch fluorescence ratio is reported as 1.28. TGCCTGTGT gave a switch fluorescence ratio of 1.02. TGCCTTTGAG gave a switch fluorescence ratio of 1.01. TGCGAAAAGC showed a switch fluorescence ratio of 1. Work on TGCGAAAGTT yielded a switch fluorescence ratio of 0.975. TGCGAAGGTA gave a switch fluorescence ratio of 0.958. TGCGACTGTT was tested, and the switch fluorescence ratio was 0.919. With TGCGACTTGC the switch fluorescence ratio was 1.14. TGCGATTTAT gave a switch fluorescence ratio of 0.987. TGCGCCACAT was tested, and the switch fluorescence ratio was 1.03. TGCGCGATCT was tested, and the switch fluorescence ratio was 1.22. TGCGGAACAC showed a switch fluorescence ratio of 1.63. Work on TGCGGAAGCT yielded a switch fluorescence ratio of 0.985. In the case of TGCGGACTGA, the switch fluorescence ratio is reported as 1.06. TGCGGATTTG gave a switch fluorescence ratio of 1.01. TGCGGCCCTG was tested, and the switch fluorescence ratio was 1. Sequence TGCGGCGATT has a switch fluorescence ratio of 1.04. TGCGGCTTGC was tested, and the switch fluorescence ratio was 0.993. TGCGGGAGAT showed a switch fluorescence ratio of 1.01. With TGCGGGGACC the switch fluorescence ratio was 1.09. Work on TGCGGTGGGA yielded a switch fluorescence ratio of 1.01. Work on TGCGGTGTTA yielded a switch fluorescence ratio of 0.97. TGCGTAAACG showed a switch fluorescence ratio of 1.07. With TGCGTAACGC the switch fluorescence ratio was 0.975. TGCGTAATGG gave a switch fluorescence ratio of 1.34. Sequence TGCGTATAGG has a switch fluorescence ratio of 1.02. In the case of TGCGTGCTCA, the switch fluorescence ratio is reported as 1. For TGCGTTCTCG, the switch fluorescence ratio was 1.09. In the case of TGCGTTGCAA, the switch fluorescence ratio is reported as 1.04. TGCGTTTAGA was tested, and the switch fluorescence ratio was 1.02. In the case of TGCTAAATAA, the switch fluorescence ratio is reported as 0.994. TGCTAATGTA showed a switch fluorescence ratio of 1.06. TGCTACAATG showed a switch fluorescence ratio of 1. TGCTACATTA gave a switch fluorescence ratio of 1.04. Work on TGCTAGGGGA yielded a switch fluorescence ratio of 0.967. For TGCTAGTAAA, the switch fluorescence ratio was 1.02. Work on TGCTATGTC yielded a switch fluorescence ratio of 0.79. For TGCTCAAATG, the switch fluorescence ratio was 0.98. TGCTCACAGA showed a switch fluorescence ratio of 1.03. With TGCTCAGAAG the switch fluorescence ratio was 0.949. Sequence TGCTCTCTGT has a switch fluorescence ratio of 0.974. For TGCTGATCGC, the switch fluorescence ratio was 1.13. With TGCTGATGAG the switch fluorescence ratio was 0.985. Work on TGCTGCGTTT yielded a switch fluorescence ratio of 0.997. For TGCTGGGGAG, the switch fluorescence ratio was 1.04. Sequence TGCTGGTAGG has a switch fluorescence ratio of 1.04. Sequence TGCTGTGAT has a switch fluorescence ratio of 0.956. Work on TGCTTCATAT yielded a switch fluorescence ratio of 1.04. With TGCTTCGGA the switch fluorescence ratio was 1.01. Sequence TGCTTCTCGC has a switch fluorescence ratio of 0.996. With TGCTTGAAGT the switch fluorescence ratio was 1.02. TGCTTGATAG was tested, and the switch fluorescence ratio was 0.982. Sequence TGCTTGCTTA has a switch fluorescence ratio of 0.942. Work on TGCTTGGTTC yielded a switch fluorescence ratio of 0.95. Work on TGCTTTACCG yielded a switch fluorescence ratio of 0.999. In the case of TGCTTTAGCC, the switch fluorescence ratio is reported as 1.05. TGCTTTATGT showed a switch fluorescence ratio of 0.983. TGGAAACAAG was tested, and the switch fluorescence ratio was 1.11. For TGGAAACTAC, the switch fluorescence ratio was 1.09. With TGGAAATCTG the switch fluorescence ratio was 1.02. Work on TGGAAGAATG yielded a switch fluorescence ratio of 0.971. With TGGAAGTCTG the switch fluorescence ratio was 0.984. TGGAATAACG was tested, and the switch fluorescence ratio was 1.07. TGGAATACTT was tested, and the switch fluorescence ratio was 1.15. TGGAATGAAA was tested, and the switch fluorescence ratio was 1. TGGAATGGTT showed a switch fluorescence ratio of 1.03. Work on TGGAATTATG yielded a switch fluorescence ratio of 1.02. TGGAATTATT showed a switch fluorescence ratio of 0.966. For TGGACCGTAT, the switch fluorescence ratio was 1.05. For TGGACCTCAC, the switch fluorescence ratio was 1.26. Work on TGGACCTGCC yielded a switch fluorescence ratio of 2.51. With TGGACGCATT the switch fluorescence ratio was 2.17. Sequence TGGACTCTGC has a switch fluorescence ratio of 0.996. Sequence TGGACTGAGG has a switch fluorescence ratio of 1.01. Work on TGGAGACTTA yielded a switch fluorescence ratio of 0.981. TGGAGAGTAT gave a switch fluorescence ratio of 0.941.
